This is one part of the list. Values were computed here from the reads of four pooled replicates and scatter widely.
Molecular target: T1, Pho4 (S. cerevisiae) (UniProt P07270)
T1 sequence: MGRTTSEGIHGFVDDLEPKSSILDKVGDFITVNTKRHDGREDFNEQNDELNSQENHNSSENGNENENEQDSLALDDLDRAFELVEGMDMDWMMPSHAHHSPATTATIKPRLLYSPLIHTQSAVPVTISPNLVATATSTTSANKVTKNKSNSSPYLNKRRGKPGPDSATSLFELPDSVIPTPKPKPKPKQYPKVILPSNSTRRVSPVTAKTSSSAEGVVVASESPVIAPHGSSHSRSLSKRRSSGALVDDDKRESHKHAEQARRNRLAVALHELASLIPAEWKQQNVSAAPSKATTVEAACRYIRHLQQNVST
Test: relative binding free energy (BET-seq); higher = weaker binding
Conditions: reference: library average

Sequence	relative binding free energy [kJ/mol]
TGGGCCACGTGGCGAG	-0.837
TGGCTCACGTGTTTTA	1.09
TTATTCACGTGCTTGC	0.586
TTTGGCACGTGCCGTG	-0.418
GAGGACACGTGAGGGT	1.63
TGGAGCACGTGGTTTA	0
ATCTTCACGTGGTATT	1.42
GGGATCACGTGAGGGT	1.59
CGGTGCACGTGGCTGG	-0.251
GAGATCACGTGTGGTT	1.42
GGGTGCACGTGAGTGT	1.05
GGCAACACGTGGGTAT	-0.209
TGTTCCACGTGAAGGC	1.88
ATTTGCACGTGCGAGT	0.293
GGGGTCACGTGGTGGG	0.628
GGGTGCACGTGCTGCT	-0.669
ATGAGCACGTGGATCG	-0.126
TGGCTCACGTGGGTTA	0.167
TTATACACGTGGCATG	-0.293
AATAGCACGTGTGGAG	0.209
AATGACACGTGGGGGG	-0.126

Sequence	relative binding free energy [kJ/mol]
ATTTTCACGTGTATTA	0.418
AGGAGCACGTGATGGA	0.879
GATCACACGTGTGTTT	1.26
CGTTGCACGTGGTCGG	-0.92
CTGATCACGTGGGTTT	0.126
AAGGTCACGTGGTATA	0.0418
CGGTCCACGTGGGTGA	-0.293
CTGGCCACGTGGGGGC	-1.05
GGATGCACGTGAGGCT	0.669
TAATGCACGTGGGCTT	-0.711
CTGGGCACGTGGGATT	-0.502
TGTTACACGTGCAGTT	0.628
AAACGCACGTGGGAGG	-0.753
ATTTACACGTGAATAA	1.97
CCGGTCACGTGGTTTT	0.544
CTGGTCACGTGTTTGT	0.377
CGTTTCACGTGGGCTA	0.837
GCGTTCACGTGGTAAG	0.795
CGTCTCACGTGAAGGG	1.59
GAAGTCACGTGTAGGG	0.879
CGATTCACGTGGAGAG	1.76

Sequence	relative binding free energy [kJ/mol]
GTTGCCACGTGGGGTA	-1.42
GTTTTCACGTGATTGT	1.84
GGAGACACGTGATTTG	0.962
GGGTTCACGTGGCGCG	0.962
ATTTCCACGTGGTGGT	-0.293
GTATTCACGTGTATTT	1
TTAGACACGTGGTTTC	-0.0418
GTCTTCACGTGTGGTG	1.34
GGGGACACGTGGCGAA	0.167
TGTGACACGTGCGTTA	-0.753
TATGTCACGTGATTGG	0.879
TTCAGCACGTGTAGTA	-0.0418
AGCGACACGTGGTGCG	-0.0418
AGAGGCACGTGGCGTG	-0.879
TGTCTCACGTGGGGGC	0.46
TTAGGCACGTGGGCTA	-0.92
TTTGTCACGTGGGGGG	0.0418
CATAGCACGTGGGAGT	-0.711
TATTGCACGTGGAATA	0.0418
GTTGGCACGTGGGAGG	-0.46
TAGCGCACGTGGGGGT	-0.92

— the BET-seq Pho4 binding data (Le et al. 2018)
